Where “and” joins values, the source holds several entries; their conditions need not be identical. Equal values may be shown once.
Legend:
[1] = target: T1, rhA3-B3 (Homo sapiens, UniProt P06731); assay: Selectivity ELISA, species and domains; format: binding
T1 construct: A3; 499-593; B3; 594-685; purchased Syngene
T1 sequence (P06731 499-685): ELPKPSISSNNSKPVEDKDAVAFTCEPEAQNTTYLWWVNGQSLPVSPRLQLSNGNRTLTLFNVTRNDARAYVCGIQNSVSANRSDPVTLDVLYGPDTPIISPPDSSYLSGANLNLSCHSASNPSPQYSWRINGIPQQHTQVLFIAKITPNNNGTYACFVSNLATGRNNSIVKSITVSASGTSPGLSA
Protocol: (§1) Selectivity determination for mAb1 was done by titrating the antibody from 4 nM to 0.25 μM and applying it on 1 μg/ml bound recombinant human (rh) CEACAM5 ECD or its domains N-A1-B1, A2-B2, A3-B3 or bound recombinant Macaca fascicularis (mf) CEACAM5 ECD, all obtained from Syngene, in an ELISA assay.

[2] = target: T2, rhN-A1-B1 (Homo sapiens, UniProt P06731); assay: Selectivity ELISA, species and domains; format: binding
T2 construct: 35-142; A1; 143-237; B1; 238-320; purchased Syngene
T2 sequence (P06731 35-320): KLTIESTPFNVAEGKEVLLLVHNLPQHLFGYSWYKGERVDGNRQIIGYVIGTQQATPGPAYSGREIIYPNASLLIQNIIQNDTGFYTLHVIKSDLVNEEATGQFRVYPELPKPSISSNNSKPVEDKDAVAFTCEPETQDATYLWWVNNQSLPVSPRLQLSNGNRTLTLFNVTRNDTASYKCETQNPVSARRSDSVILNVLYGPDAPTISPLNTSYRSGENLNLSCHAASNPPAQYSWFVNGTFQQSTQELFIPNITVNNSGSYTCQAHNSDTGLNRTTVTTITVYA
Protocol: as §1

[3] = test system: MKN45 cells; assay: Internalization assay using Cell Discoverer (pHrodo labeled antibodies); format: cell-based, human
Text: A relevant characteristic of an ADC is its internalization into a target-expressing cell and lysosomes, and thus internalization is a relevant property of antibodies to be used as part of ADCs. Antibody internalization rate into the late endosome and lysosome (low pH vesicles) can be monitored by directly labeling the antibodies with a pH-sensitive dye (pHrodo) which emits strong fluorescence at a pH lower than 6.0 upon excitation. This fluorescence can be imaged in the Cell-Discoverer7 (Zeiss) and internalization rate can be calculated.
To analyze the internalization rates of several antibodies, MKN45 cells were seeded in a 96 well, dark, flat clear bottom plate (Cellvis) at 25,000 cells/well. Cells were cultivated over night with 100 μl/well of RMPI-1640+10% FBS (Thermo). Cell media was removed, and cells were stained with 100 μl of 10 μg/ml Hoechst dye diluted in PBS×1 for 15 min at room temperature (RT) in the dark. Cells were then washed twice with PBS×1.
Plate was incubated in the Cell Discoverer at 37° C., 5% CO2, for 20 hours, and images were acquired every 20 minutes, as further described below.
Internalization of pHrodo labeled antibodies into the late endosomes and lysosomes of cells was imaged by Cell-Discoverer7 (Zeiss) using fluorescence at excitation of 567 nm and emission detector of 592/25 nm. Cell nuclei were labeled with Hoechst and imaged at excitation of 385 nm and emission detector of 425/30 nm.
Fluorescence of each well was recorded every 20 min for 20 h. Analysis of Sum Fluorescence Intensity per cell (SFI) was calculated by the Zen Software (ZEN3.1) and Excel analysis of linear regression.

[4] = ADC stability in serum; format: in vitro ADME; conditions: up to 96 h
Protocol: 2 M HEPES solution: 52.1 g HEPES were dissolved in 75 mL MiliQ-water and 15 mL HCl 25%, adjusted to pH 7.55 and added up to 100 mL. This solution was mixed as 15% v/v with serum to obtain a stabilized serum with pH 7.3-7.4. Human serum from Biowest (Lot. no. S15594S4200) was thawed. 100 mL serum were mixed with 15 mL 2 M HEPES buffer. Mouse serum from Biowest (Lot. no. S18169S2160) was thawed. 100 mL serum were mixed with 15 mL 2 M HEPES buffer. Cynomolgus serum was thawed and 8.5 mL serum were mixed with 1.5 mL 2 M HEPES buffer. The pH was measured (7.37) and serum was sterile filtered. 2 mL aliquots were frozen at −20° C.
The prepared serum was thawed at RT. The desired ADC protein concentration was prepared as triplicated with 180 μg/mL for subsequent free payload analytics via LC-MS. After adding the ADCs to the serum, the individual batches were mixed and separated into 20 μL aliquots.
Additionally, one 96 h sample with 20 μL for each ADC was pipetted and was used to for total work up analyses to measure recovery. 0 h samples were directly frozen at −80° C., remaining samples were incubated at 37° C. and 5% CO2 and reactions were stopped at 2/4/6/24/48/72, 96 hours incubation via storage at −80° C.

[5] = Payload liberation in human liver lysosomes; format: in vitro ADME
Protocol: pH was adjusted either to pH 5.0 or pH 4.0 using assay buffer. […] Preparation of MeOH+PIC (1:200): 10 μL PIC III+1990 μL MeOH. The reactions were started upon transferring the Eppendorf tubes to a Thermomix that was preheated to 37° C. Subsequently, 10 μL aliquots were drawn after 0, 1, 2, 4, 24 and 48 hours and mixed with 40 μL PIC III (1:200).

[6] = test system: human patient-derived CRC xenograft model COPF217; assay: CRC PDX mouse model COPF217; format: in vivo; conditions: single i.v. treatment, 10 mg/kg
Protocol: Anti-tumor efficacy in vivo has been evaluated in the human patient-derived CRC xenograft model COPF217 (Shanghai LideBiotech CO., LTD). COPF217 tumor fragments were transplanted subcutaneously into the right flank of six to eight weeks old immunodeficient female mice (NU-Foxn1nu, Charles River). […] Tumor length (L) and width (W) were measured with calipers and tumor volumes were calculated using the formula L×(W^2)/2.

[7] = Pharmacokinetic study in human FcRn transgenic mice; conditions: 3 mg/kg i.v., HuFcRn mice

B1: mAb1: anti-CEACAM5 antibody; two heavy chains SEQ ID NO: 13 and two light chains SEQ ID NO: 14 (antibody)
heavy: EVQLQESGPGLVKPSQTLSLTCTVSDGSVSRGGYYLTWIRQHPGKGLEWIGYIYYSGSTYFNPSLRSRVTMSVDTSKNQFSLKLSSVTAADTAVYYCARGIAVAPFDYWGQGTLVTVSSASTKGPSVFPLAPSSKSTSGGTAALGCLVKDYFPEPVTVSWNSGALTSGVHTFPAVLQSSGLYSLSSVVTVPSSSLGTQTYICNVNHKPSNTKVDKRVEPKSCDKTHTCPPCPAPPVAGPSVFLFPPKPKDTLMISRTPEVTCVVVDVSHEDPEVKFNWYVDGVEVHNAKTKPREEQYNSTYRVVSVLTVLHQDWLNGKEYKCKVSNKALPSSIEKTISKAKGQPREPQVYTLPPSREEMTKNQVSLTCLVKGFYPSDIAVEWESNGQPENNYKTTPPVLDSDGSFFLYSKLTVDKSRWQQGNVFSCSVMHEALHNHYTQKSLSLSPG
light: EIVLTQSPATLSVSPGERATLSCRTSQSVRSNLAWYQQKPGQAPRLLIYAASTRATGIPARFSGSGSGTEFTLTISSLQSEDFAVYYCQQYTNWPFTFGPGTKVDIKRTVAAPSVFIFPPSDEQLKSGTASVVCLLNNFYPREAKVQWKVDNALQSGNSQESVTEQDSKDSTYSLSSTLTLSKADYEKHKVYACEVTHQGLSSPVTKSFNRGEC
Question: Which “Binding to rhA3-B3” value [1] does the source give for B1 here?
Answer: No binding

Question: And the “Binding to rhN-A1-B1” value [2]?
Answer: No binding

Question: What about the average binding rate ([3]; average of the three slopes of the linear part of the curve) of the same molecule?
Answer: 28958±766

Question: And the internalization intensity ([3]; compared to humab2-3 and hmn-14)?
Answer: higher internalization intensity

Question: What about the “Slope of Curve” value ([3]; linear part (700 to 1200 minutes) of fluorescence intensity per cell, 100 nM pHrodo labeled antibody, single wells, listed as so8G4) of the same molecule?
Answer: 28519 and 29844 and 28513

B2: ADC1 (conjugate)
heavy: B1 heavy
light: B1 light
Question: Which “warhead release in serum” value ([4]; cynomolgus serum) does the source give for B2 here?
Answer: Only minor warhead release observed

Question: What about the “warhead release in serum” value ([4]; human serum) of the same molecule?
Answer: Only minor warhead release observed

Question: And the “payload release, of initial total conj. payload” value ([5]; human liver lysosomes, pH 5.0)?
Answer: ~40%

Question: What about the “ADC catabolite profiling, lysosomal release product” value ([5]; human lysosomal extracts, 0 h, 4 h, 24 h) of the same molecule?
Answer: expected exatecan catabolite was subsequently released

Question: And the anti-tumor effect [6]?
Answer: significant anti-tumor effect

Question: What about the “impact on body weight” value [6] of the same molecule?
Answer: no significant impact on body weight

Question: And the AUCinf [7]?
Answer: 1360 µg·h/mL

Question: And the AUClast [7]?
Answer: 1360 µg·h/mL

Question: What about the Cl [7] of the same molecule?
Answer: 2.20 mL/h/kg

Question: What about the Tlast [7] of the same molecule?
Answer: 240 h

Question: And the Vss [7]?
Answer: 0.0658 L/kg

Question: What about the Vz [7] of the same molecule?
Answer: 0.0939 L/kg

Question: And the C0 ([7]; back extrapolation)?
Answer: 76.8 µg/mL

Source: US20250179210A1, “ANTI-CEACAM5 ANTIBODIES AND CONJUGATES AND USES THEREOF” (Merck Patent GmbH, priority 2022, published 2025)
